From the supplement of paper PMC10338343 come the findings set out here.

± gives the standard deviation. Only a part is listed here, and it is no random draw.
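Further: 1 nM active piRISC with 0.1 nM target library at 33 °C single turnover.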

The subject of the test is MIWI (PIWIL1) piRISC loaded with piRNA #1 (30 nt). The test is described as follows: pre-steady-state target cleavage rate (min^-1); MIWI and MILI are mouse PIWI proteins and EfPiwi is from a freshwater sponge; tags in brackets are library labels; higher = faster piRNA-guided slicing of the target. The conditions noted are these: guide: piRNA #1 5'p-UGAGGUAGUAGGUUGUAUAGUAUCCAGAGG; auxiliary factor: 500 nM mouse GTSF1. The gist of the method:
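A transcribed, DNA-blocked target RNA library […] was incubated at 33 °C for 0–8 or 0–960 min with 1 nM active affinity-purified piRISC carrying one synthetic guide, in HEPES–potassium acetate buffer with or without 500 nM GTSF1 partner protein. Uncleaved targets were then sequenced and normalised to depth and to weakly complementary targets. Data from three trials were pooled, with k3 capped at 0.0001 min^-1, and a burst-and-steady-state fit yielded the pre-steady-state cleavage rate.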
For GGAGACCAUACAAUACAACCUACUACCUGA, the “pre-steady-state target cleavage rate” value was found to be 0.517 ± 0.074.
For GGAGAGGAUACUAUACAAGCUACUUCCUCA, the “pre-steady-state target cleavage rate” value came out at 0.265 ± 0.037.
On to GGACUGGAUACUAAACAACCUACUACGUCA, for which the “pre-steady-state target cleavage rate” value stood at 0.589 ± 0.069.
The result for “GGAGACCUAUGUAUACAACCUAGAUGGAGA [g9:g19:cont:t1A]” reads below 0.0001; that for CCUCUGGAUACUAUACUAACCUACUACCUCA, 0.0165 ± 0.0057.
With GCUCUGGAUACUAUACAACCUACUGACCUCA, the “pre-steady-state target cleavage rate” value worked out at 0.687 ± 0.047.
GGUCUGGUUACUAUACAACCUACUACCUCA: the “pre-steady-state target cleavage rate” value is 1.87 ± 0.11.
For GGAGACCUAUGAUUAGAACCUACUACGUCA, the “pre-steady-state target cleavage rate” value was below 0.0001.
GCUCUGGAUACUAUACAACCUACUAACCUCA: the “pre-steady-state target cleavage rate” value is 1.71 ± 0.11.
For CCUCUGGAUACUAUACAACCUAGUACCUGA, the “pre-steady-state target cleavage rate” value amounted to 0.035 ± 0.012.
Take “CCUCUGGAUACUAUACAACCUUGAUGGAGA [g10:g30:cont:t1A]”: the “pre-steady-state target cleavage rate” value worked out at 0.00564 ± 0.0039.
For GGAGUGGAUACUAUACAACCUACUACCCUCA, the “pre-steady-state target cleavage rate” value was determined as 0.629 ± 0.074.
On to GGAGACCAUACUAUACAACCUACUACCAGA, for which the “pre-steady-state target cleavage rate” value was determined as 0.907 ± 0.073.
On to GGACUGGAUACUAUACAACCUACUACACUCA, for which the “pre-steady-state target cleavage rate” value was 0.617 ± 0.11.
As for GGACUGGUAACUAUACAACCUACUACCUCA, the figure is 1.21 ± 0.13; as for GGAGACCUAUGUAUACAUCCUAGUACCUCA, 0.00528 ± 0.0014.
As for GGAGACGAUACUAAACUACCUACUACCUCA, the “pre-steady-state target cleavage rate” value was 1.05 ± 0.083.
The result for GGAGACGAUACUAUAGUACCUACUACCUCA reads 1.28 ± 0.097.
Turning to GGAGACCUUAGUAUACAACCUACUAGCUCA, the “pre-steady-state target cleavage rate” value came out at 0.0674 ± 0.013.
With GGAGAGGAUACAAAACAACCUACUACCUCA, the “pre-steady-state target cleavage rate” value came to 0.787 ± 0.082.
Consider GGAGACCUAUGAUAUGUUGCAAGUACCUCA, for which the “pre-steady-state target cleavage rate” value is below 0.0001.
With GGUCUGGAUACUAUACAACCUACUACCGUCA, the “pre-steady-state target cleavage rate” value is 0.128 ± 0.019.
On to GGAGACCUAACUAUACAAACUACUACCUCA, for which the “pre-steady-state target cleavage rate” value was 0.482 ± 0.04.
Regarding GGAGAGGAUACUUUACAACCUACUAGCUCA, the “pre-steady-state target cleavage rate” value worked out at 0.242 ± 0.058.
As for GGUCUGGAUACGAUACAACCUACUACCUCA, the “pre-steady-state target cleavage rate” value turned out to be 1.79 ± 0.11.
Turning to CCUGUGGAUACUAUACAACCUACUACCACA, the “pre-steady-state target cleavage rate” value is 0.357 ± 0.055.
For the sequence “GGAGACCAUACUAUACAACCUACUAGGAGA [g6:g23:cont:t1A]”, the “pre-steady-state target cleavage rate” value came to 0.0655 ± 0.019.
As for GGUGUGGAUACUAUACAUCCUACUACCUCA, the figure is 1.27 ± 0.054; as for GGAGACCUAUGAUAUGUUCCUACUCCUCA, below 0.0001; as for GGAGACCAUACUAUACAUCCUUCUACCUCA, 0.273 ± 0.019.
Consider GGAGACCAAUGUAUACAACCUACUACCUCA, for which the “pre-steady-state target cleavage rate” value came out at 0.204 ± 0.027.
As for CCUCUGGAUACUAUACAACCUACUUGCUCA, the “pre-steady-state target cleavage rate” value came to 1.1 ± 0.12.
As to GGAGAGGAUACUAUACAUCGUACUACCUCA, the “pre-steady-state target cleavage rate” value turned out to be 0.224 ± 0.026.
As for GGUCAGGAUACUAUACAACCUACUUCCUCA, the figure is 0.341 ± 0.061.
Take GGACUGGAUACUAUACCACCUACUACCUCA: the “pre-steady-state target cleavage rate” value came to 1.17 ± 0.082.
The result for GGAGACCUAAUAUACAACCUACUACCUCA reads 0.265 ± 0.048; that for GGAGACGAUACUAUACAACCUACUACGAGA, 0.592 ± 0.2.
On to GGUCUGGAUACUAUACUACCUACUAGCUCA, for which the “pre-steady-state target cleavage rate” value stood at 0.391 ± 0.048.
Take GGAGACCUAUCUAUACCACCUACUACCUCA: the “pre-steady-state target cleavage rate” value was 0.316 ± 0.026.
